In PubChem BioAssay (NCI):
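Dose response: 5 concentrations. Exposure: 48 h. Format: 96-well plates. Endpoint: linear interpolation; highest concentration if not reached. At the GI50, growth is halved. The concentration for full growth arrest is given as TGI.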

These compounds were tested on NCI-H322M lung (assay: NCI tumour cell line growth inhibition, 48 h).
For COC(CCP(=O)(c1ccccc1)c1ccccc1)(C(=O)c1ccccc1)c1ccccc1 (stereo not given), the GI50 was 4.36 µM and the TGI was 17.9 µM. Compound O=c1cc(Cl)nc[nH]1 has a TGI greater than 100 µM. N=C(N)SCCc1cn2ccccc2n1 showed a TGI greater than 100 µM. With O=S1(=O)CCN(Cc2ccccn2)CC1 the TGI was greater than 100 µM. For Cc1cc2[nH]c3c(C#N)c(-c4ccccc4)c(N=Nc4cccc(C(F)(F)F)c4)c(=O)n3c2cc1C, the TGI was greater than 100 µM. O=C(O)C1C2CC3C(OC(=O)C31)C2Br (stereo not given) was tested, and the TGI was greater than 100 µM. For CCCNC(=S)N/N=C/c1cccc(C)n1, the TGI was greater than 100 µM. With O=c1c2ccc3cccc4c(=O)cc(c5ccccc15)-c2c34 the TGI was greater than 100 µM. Work on COc1cc([C@@H]2c3cc4c(cc3[C@@H](NCCNCCO)[C@H]3COC(=O)[C@H]23)OCO4)cc(OC)c1O yielded a TGI greater than 100 µM. Compound CC(C)(C)c1ccc(CN2CCN(C(c3ccccc3)c3ccc(Cl)cc3)CC2)cc1 (stereo not given) has a TGI greater than 100 µM. In the case of NC1CC(=O)c2csc(Br)c21 (stereo not given), the TGI is reported as greater than 83 µM. In the case of CC(=O)Oc1ccc2c(c1)c1c(=O)oc(N(C)C)nc1n2Cc1ccccc1, the TGI is reported as greater than 100 µM. With O=C(Nc1ccc(Br)cc1)Nc1n[nH]c2ccccc12 the TGI was greater than 63.4 µM. With COc1ccc(C2SCC(=O)N2c2ccc(-c3ccc(-n4c(-c5ccccc5)nc5ccccc5c4=O)cc3)cc2)cc1 (stereo not given) the TGI was greater than 100 µM. CC1(c2ccc(Cl)cc2)CC(c2ccc(Cl)cc2)=C(C#N)C(=C(C#N)C#N)N1 (stereo not given) was tested, and the TGI was 37.6 µM. For CC(=O)C1=C(N=[N+]=[N-])c2cccc3cccc(c23)C1=O, the TGI was 41.9 µM. [Cu+2].[O-]c1ccc2ccccc2c1N=Nc1ccccc1.[O-]c1ccc2ccccc2c1N=Nc1ccccc1 was tested, and the TGI was greater than 100 µM. O=C1c2ccccc2C(=O)N1c1ccc(S(=O)(=O)Nc2ncccn2)cc1 gave a GI50 greater than 100 µM and a TGI greater than 100 µM. For O=c1/c(=C/c2ccc(Cl)cc2Cl)sc2nc3ccccc3n12, the TGI was greater than 100 µM. With CC(C)OP(=O)(CN(C)/C(F)=N\C(F)(F)F)OC(C)C the TGI was greater than 100 µM. Compound COc1ccc(C(c2ccc(C(C)C)cc(=O)c2O)c2c(O)cc3oc(-c4ccccc4)cc(=O)c3c2O)cc1 (stereo not given) has a TGI of 89.7 µM. CC(=O)[O-].CC(=O)[O-].O=C(N/N=C/c1cc(Cl)cc(Cl)c1[OH2+])c1ccncc1.[Co+2] gave a TGI greater than 100 µM. In the case of Nc1ccc2c(c1)C(=O)c1c(F)cccc1-2, the TGI is reported as greater than 100 µM. CCOC(=O)/N=C(\N)SCc1ccccc1 showed a TGI greater than 100 µM. Work on CN1C(=O)CNC(=O)[C@H](NC(=O)c2nc3ccccc3cc2O)CSSC[C@H]1C(=O)NCCc1nc2ccccc2cc1O yielded a GI50 greater than 61.8 µM and a TGI greater than 100 µM. O=C1CCCc2c1c1c(n2Cc2ccccc2)-c2ccccc2C1=O was tested, and the TGI was 30.5 µM. With O=C(OCCOCBr)c1ccccc1 the TGI was greater than 100 µM. Work on C=C(C=O)c1c2c(nc3ccccc13)C(=O)c1ccccc1C2=O yielded a TGI of 3.1 µM. Work on CC(=O)O[C@@H]1CO[C@H]2O[C@H]3[C@@H](C(C=O)=C[C@H](O)[C@@H]4C5=C(C(C)C)CC[C@]5(C)CC[C@@]34C)[C@@]2(O)C1=O yielded a TGI of 2.6 µM. CCc1c2c(nc3cc4c(cc13)OCO4)-c1cc3c(c(=O)n1C2)COC(=O)[C@@]3(CC)OC(=O)CN showed a GI50 of less than 0.0124 µM and a TGI of 3.52 µM. Compound CC1CCCC2=C1C(c1ccc(Cl)cc1)n1c(s/c(=C\c3ccc(Cl)cc3)c1=O)=N2 (stereo not given) has a TGI greater than 100 µM. O=P(O)(O)C(O)/C=C/c1ccccc1 (stereo not given) showed a TGI greater than 100 µM. O=C1c2cc3ccccc3cc2C2(c3ccc(Cl)cc3)N[C@H]3CCCC[C@@H]3N12 (stereo not given in full) showed a TGI of 42.5 µM. Cc1ccccc1C(=O)Oc1ccc(Oc2ccccc2)cc1 showed a TGI greater than 100 µM. Compound O=C(c1cc(Cl)cc(Cl)c1)N(C(=S)OC12CC3CC(CC(C3)C1)C2)c1ccccc1 has a TGI greater than 100 µM. CCOP(=O)(/C=C\n1cnc2c(=O)n(C(C)=O)c(N)nc21)OCC was tested, and the TGI was greater than 100 µM. COc1ccc2c3c1OC1C(=O)C=CC4(O)C(C2)NCC[C@@]314 (stereo not given in full) gave a TGI of 21.1 µM. COc1cc2c(c(OC)c1OC)-c1[nH]ncc1CC2 showed a TGI greater than 100 µM. Work on O=C(O)CSCC(=O)Nc1ccc2cccc3c2c1CC3 yielded a TGI greater than 100 µM. Work on CO[C@@H]1[C@@H](OC2OC(C)C(OC3CC(C)(O)C(OC(=O)CC(C)C)C(C)O3)C(N(C)C)C2O)[C@@H](CC=O)C[C@@H](C)C(=O)/C=C/C2O[C@H]2C[C@@H](C)OC(=O)C[C@H]1OC(C)=O (stereo not given in full) yielded a TGI of 57.5 µM. In the case of C=C1CC(CCCl)(c2ccccc2)OC1=O (stereo not given), the TGI is reported as greater than 100 µM. Compound CC(NS(C)(=O)=O)c1ccccc1 (stereo not given) has a TGI greater than 100 µM. For C/C(=N\Nc1ccc([N+](=O)[O-])cc1[N+](=O)[O-])c1ccc2ccccc2n1, the TGI was greater than 100 µM. Work on COc1cc(N=NN(C)C)c(C(C)c2c3cc(OC)c(OC)cc3cc[n+]2C)cc1OC (stereo not given) yielded a TGI greater than 100 µM. CCC(Sc1nnc2c3ccccc3n(CC)c2n1)C(=O)Nc1ccccc1OC (stereo not given) was tested, and the GI50 was 3.18 µM and the TGI was greater than 100 µM. Compound CCCNCc1nc2ccc(Br)cc2c(=O)n1CCC has a TGI of 31.2 µM. With CC[C@@]1(O)C(=O)OCc2c1cc1n(c2=O)Cc2c-1nc1ccccc1c2CC[Si](C)(C)C the TGI was greater than 100 µM. Work on O=C(O)/C(=C/c1ccccc1[N+](=O)[O-])c1ccccc1 yielded a TGI greater than 100 µM. Work on Nc1cc(-c2ccccc2)ccc1O yielded a GI50 of 78.4 µM and a TGI greater than 100 µM. O=C(CSc1nc(=O)[nH]c2nc[nH]c12)Nc1ccccc1 showed a TGI greater than 100 µM. Work on CCN(CC)c1ccc2c(c1)Oc1nc(N)c(C#N)c(N)c1C2Sc1ccc(SC)cc1 (stereo not given) yielded a GI50 of 1.72 µM and a TGI of 3.14 µM. C#C[C@]1(O)CC[C@H]2[C@@H]3CC=C4c5sc(N=C(N)N)nc5CC[C@]4(C)[C@H]3CC[C@@]21C gave a GI50 of 1.39 µM and a TGI of 2.7 µM. With CC(=O)O[C@H]1C[C@]2(C)C(CCC3O[C@@]32C)[C@@]2(CC(c3ccoc3)OC2O)[C@@H]1C (stereo not given in full) the TGI was greater than 100 µM. C1COC(NC(C2CC2)C2CC2)=N1 showed a TGI greater than 100 µM. Cn1c(COC(=O)N2CCCCC2)nc2c(N3CCOCC3)nc(-c3ccccc3)nc21 gave a GI50 of 1.47 µM and a TGI of 2.97 µM. CCCN(CCC)c1ccc(CO)c(C)c1 was tested, and the GI50 was greater than 100 µM and the TGI was greater than 100 µM. Compound COCCOC(=O)C1=C(C)NC2=C(C(=O)CC(c3ccccc3OC)C2)C1c1cccc(O)c1 (stereo not given) has a GI50 of 8.74 µM and a TGI greater than 100 µM. CC(=O)Nc1ncc(Sc2ccccc2C(=O)O)s1 showed a TGI greater than 100 µM. In the case of CN1CCN(c2ccc3c4c(cccc24)C(=O)N(CCN2CCN(CCCN4CCN(CCN5C(=O)c6cccc7c(N8CCN(C)CC8)ccc(c67)C5=O)CC4)CC2)C3=O)CC1, the GI50 is reported as 4.45 µM and the TGI is reported as 11.9 µM. CCOc1ccccc1/C=C1\NC(=O)N(/C=C2\C(=O)Oc3ccccc3C2=O)C1=O showed a TGI greater than 100 µM. O=C(CN1CCN(C(=O)OCc2ccccc2)CCN(CC(=O)N2CCCCC2)CCN(C(=O)OCc2ccccc2)CC1)N1CCCCC1 showed a TGI greater than 47 µM. For COC(=O)NCCc1[nH]nc2c1C(=O)C=C(Nc1ccccc1)C2=O, the TGI was greater than 100 µM. Work on C(=C1c2ccccc2-c2ccccc21)c1ccccn1 yielded a GI50 of 15.3 µM and a TGI of 77.7 µM. O=C1OCC(C#Cc2ccccc2)=C1Cl was tested, and the GI50 was 11.1 µM and the TGI was 29.2 µM. Compound CCCCCCCCCCCCCCCc1cc(O)ccc1N has a GI50 greater than 67.1 µM and a TGI greater than 100 µM. For CC(C)=CCc1c(O)cc(/C=C/c2cc(O)c3c(c2)C[C@@H]2C(C)(C)[C@H](O)[C@H](O)C[C@@]2(C)O3)cc1O, the GI50 was 1.26 µM and the TGI was 5.49 µM. CCCN1C(=O)CCC2=C1CCc1c2ccc(Cl)c1Cl was tested, and the TGI was greater than 100 µM. Cc1cccc(Nc2cn(COCc3ccccc3)c(=O)[nH]c2=O)c1 was tested, and the TGI was greater than 100 µM. COc1ccc2c3c1C(=O)CCC3CO2 (stereo not given) was tested, and the TGI was greater than 100 µM. O=C1C2C=CC1C1C(=O)OC(=O)C21 (stereo not given) gave a TGI greater than 100 µM. Work on CC(=O)Nc1ccc(CNc2cc(=O)[nH]c(=O)[nH]2)cc1 yielded a TGI greater than 100 µM. Compound CC(C)C(=O)N[C@@H](C)C(=O)N(Cc1ccc2ccccc2c1)N=O has a TGI greater than 100 µM. O=c1[nH]c(Br)nc2c(Br)c[nH]c12 was tested, and the TGI was greater than 100 µM. With Cn1c(CCC#N)nc2ccc(Br)cc2c1=O the TGI was greater than 100 µM. CC(ONC(=O)c1cc(C(F)(F)F)cc(C(F)(F)F)c1)C(=O)Nc1ccc(Cl)cc1 (stereo not given) was tested, and the GI50 was 6.14 µM and the TGI was greater than 80.6 µM. With Cc1ccc(C)c(NC(=O)c2cc(-c3ccc([N+](=O)[O-])cc3)nc(N)n2)c1 the TGI was greater than 100 µM. Compound O=Cc1ccc(-c2ccc(-c3ccc(C=O)s3)o2)s1 has a TGI greater than 100 µM. COc1ccc(Cc2nc3cc(C(F)(F)F)ccc3n2CCCN(C)C)cc1 showed a TGI of 39.4 µM. In the case of CC(=O)OC1CC2CCC1(C)C2(C)C (stereo not given), the TGI is reported as greater than 100 µM. In the case of COc1ccc2c(c1)CC[C@@H]1[C@@H]2CC[C@@]2(C)[C@H]1CC1(CCCCC1)[C@@H]2O, the GI50 is reported as 17.5 µM and the TGI is reported as 32.1 µM. Nc1nc(Cl)cc(NCC2(CO)CCC(Cc3ccccc3)C2)n1 (stereo not given) gave a TGI greater than 100 µM. CN(C)CCNc1ccc([N+](=O)[O-])c2nc3ccccc3c(N)c12 was tested, and the TGI was 3.29 µM. COc1cc(/C=C/C(C)=O)ccc1OP(=O)(O)O gave a TGI greater than 100 µM. In the case of C=C1c2c(cc3c(c2O)c(=O)c2ccccc2n3C)OC1(C)C, the TGI is reported as greater than 100 µM. With Cc1ccc(NC(=O)/C(CC(=O)c2c[n+](=O)c3ccccc3n2O)=N\NC(=O)C[n+]2ccccc2)cc1 the TGI was greater than 100 µM. Work on CC(C)C(C/C=C1/CC(CO)(COC(=O)CC(C(C)C)C(C)C)OC1=O)C(C)C (stereo not given) yielded a TGI of 23.2 µM. CCC1CC2CN3CCc4c([nH]c5c(-c6c(OC)ccc7c8c([nH]c67)[C@]6(C(=O)OC)CC7CC(CC)C6N(CC8)C7)c(O)ccc45)[C@](C(=O)OC)(C2)C13 (stereo not given in full) showed a TGI of 34.5 µM. With COc1cccc(/C=N\Nc2ccc([N+](=O)[O-])cn2)c1O the GI50 was 1.96 µM and the TGI was 7.49 µM. Compound N#CCC(=O)Nn1c(CC#N)nnc1Cc1ccccc1 has a TGI greater than 100 µM. In the case of CC(=O)OC12c3ccccc3C1CCCCCC21OCCCO1 (stereo not given), the TGI is reported as greater than 100 µM. With CC1(C)N=C(N)N=C(N)N1c1ccc(F)c(C(F)(F)F)c1 the GI50 was 1.01 µM and the TGI was greater than 100 µM. With O=C1c2ccccc2-c2nc(-c3cccnc3)cc3c2c1nc1ccccc13 the TGI was greater than 100 µM. Compound ClCCN(CCCl)c1ccc(-n2cnc3c(Cl)ncnc32)cc1 has a GI50 of 1.92 µM and a TGI of 3.55 µM. Work on O=C(CCC(=O)Nc1ccc(Cl)cc1)CC(=O)c1ccc(F)cc1 yielded a TGI greater than 100 µM. Compound O=C1OC(c2ccc(O)c(Cl)c2)(c2ccc(O)c(Cl)c2)c2ccc(Br)c3cccc1c23 (tested in a mixture with another compound) has a TGI of 28.3 µM. COc1ccc2[nH]cc(-c3nc(-c4cn(C)c5ccncc45)cs3)c2c1 gave a GI50 of 1.87 µM and a TGI of 3.47 µM. CC(=O)O[C@H]1CC[C@]2(C)[C@H]3CC[C@@H]4[C@H]5[C@H](C(C)C)CC[C@]5(C(=O)OCC(CO)(CO)N=C(N)N)CC[C@@]4(C)[C@]3(C)CC[C@H]2C1(C)C was tested, and the GI50 was 1.51 µM and the TGI was 2.84 µM. COc1ccc(O)c(C(=O)c2ccc(C(=O)O[C@@H]3CCCNC[C@H]3NC(=O)c3ccncc3)cc2)c1F showed a GI50 of 2.21 µM and a TGI greater than 25 µM. O=C1Nc2ccccc2C1Cc1ccccc1 (stereo not given) showed a TGI greater than 100 µM. O=C(Oc1ccccc1)c1cc2cc(CCl)ccc2oc1=O showed a TGI greater than 100 µM. For C=C=C(C)[Si](C)(C)C, the TGI was greater than 100 µM.
